Experimental findings from the GPR68 mutational scans of Howard et al. (2025) are described below.

Scores with a large standard error are left out. Not listed are two conditions whose scores span a narrow range. Names with del lack the residues named; names with ins carry added residues between the positions named. For some assays here: The data file names ogerin without a concentration.

B1: GPR68, Q15743 (parent)
chain: MGNITADNSSMSCTIDHTIHQTLAPVVYVTVLVVGFPANCLSLYFGYLQIKARNELGVYLCNLTVADLFYICSLPFWLQYVLQHDNWSHGDLSCQVCGILLYENIYISVGFLCCISVDRYLAVAHPFRFHQFRTLKAAVGVSVVIWAKELLTSIYFLMHEEVIEDENQHRVCFEHYPIQAWQRAINYYRFLVGFLFPICLLLASYQGILRAVRRSHGTQKSRKDQIQRLVLSTVVIFLACFLPYHVLLLVRSVWEASCDFAKGVFNAYHFSLLLTSFNCVADPVLYCFVSETTHRDLARLRGACLAFLTCSRTGRAREAYPLGAPEASGKSGAQGEEPELLTKLHPAFQTPNSPGSGGFPTGRLA

In series [1] the parent is B1. Kind of series: cAMP reporter score (Enrich2 score, wild type = 0); higher = more signal; HEK293T, FACS bins.
The variants in series [2] derive from B1. Kind of series: surface expression score (Enrich2 score, wild type = 0); higher = more signal; HEK293T, FACS bins.

In the case of MGNITADNSSMSCTIDHTIHQTLAPVVYVTVLVVGFPANCLSLYFGYLQIKARNELGVYLCNLTVADLFYICSLPFWLQYVLQHDNWSHGDLSCQVCGILLYENNYISVGFLCCISVDRYLAVAHPFRFHQFRTLKAAVGVSVVIWAKELLTSIYFLMHEEVIEDENQHRVCFEHYPIQAWQRAINYYRFLVGFLFPICLLLASYQGILRAVRRSHGTQKSRKDQIQRLVLSTVVIFLACFLPYHVLLLVRSVWEASCDFAKGVFNAYHFSLLLTSFNCVADPVLYCFVSETTHRDLARLRGACLAFLTCSRTGRAREAYPLGAPEASGKSGAQGEEPELLTKLHPAFQTPNSPGSGGFPTGRLA [I105N], the cAMP reporter score in series [1] (pH 6) was -0.246; in series [1] (pH 6, modulator: ogerin) it was -0.253.

Consider MGNITADNSSMSCTIDHTIHQTLAPVVYVTVLVVGFPANCLSLYFGYLQIKARNELGVYLCNLTVADLFYICSLPFWLQYVLQHDNWSHGDLSCQVCGILLYENGYISVGFLCCISVDRYLAVAHPFRFHQFRTLKAAVGVSVVIWAKELLTSIYFLMHEEVIEDENQHRVCFEHYPIQAWQRAINYYRFLVGFLFPICLLLASYQGILRAVRRSHGTQKSRKDQIQRLVLSTVVIFLACFLPYHVLLLVRSVWEASCDFAKGVFNAYHFSLLLTSFNCVADPVLYCFVSETTHRDLARLRGACLAFLTCSRTGRAREAYPLGAPEASGKSGAQGEEPELLTKLHPAFQTPNSPGSGGFPTGRLA [I105G], for which the cAMP reporter score in series [1] (pH 6) was -0.547; in series [1] (pH 6, modulator: ogerin), -0.731; in series [1] (pH 6.5, modulator: ogerin), -0.967. Besides, in series [2], the surface expression score is -3.95.

Take MGNITADNSSMSCTIDHTIHQTLAPVVYVTVLVVGFPANCLSLYFGYLQIKARNELGVYLCNLTVADLFYICSLPFWLQYVLQHDNWSHGDLSCQVCGILLYENRYISVGFLCCISVDRYLAVAHPFRFHQFRTLKAAVGVSVVIWAKELLTSIYFLMHEEVIEDENQHRVCFEHYPIQAWQRAINYYRFLVGFLFPICLLLASYQGILRAVRRSHGTQKSRKDQIQRLVLSTVVIFLACFLPYHVLLLVRSVWEASCDFAKGVFNAYHFSLLLTSFNCVADPVLYCFVSETTHRDLARLRGACLAFLTCSRTGRAREAYPLGAPEASGKSGAQGEEPELLTKLHPAFQTPNSPGSGGFPTGRLA [I105R]: the cAMP reporter score in series [1] (pH 6) was -0.042; in series [1] (pH 6, modulator: ogerin), -2.31. In addition, in series [2], the surface expression score is -0.408.

As to MGNITADNSSMSCTIDHTIHQTLAPVVYVTVLVVGFPANCLSLYFGYLQIKARNELGVYLCNLTVADLFYICSLPFWLQYVLQHDNWSHGDLSCQVCGILLYENHYISVGFLCCISVDRYLAVAHPFRFHQFRTLKAAVGVSVVIWAKELLTSIYFLMHEEVIEDENQHRVCFEHYPIQAWQRAINYYRFLVGFLFPICLLLASYQGILRAVRRSHGTQKSRKDQIQRLVLSTVVIFLACFLPYHVLLLVRSVWEASCDFAKGVFNAYHFSLLLTSFNCVADPVLYCFVSETTHRDLARLRGACLAFLTCSRTGRAREAYPLGAPEASGKSGAQGEEPELLTKLHPAFQTPNSPGSGGFPTGRLA [I105H], the cAMP reporter score in series [1] (pH 6) was -0.55; in series [1] (pH 6, modulator: ogerin), -0.444; in series [1] (pH 6.5, modulator: ogerin) it was -0.603. Moreover, in series [2], the surface expression score is -2.96.

In the case of MGNITADNSSMSCTIDHTIHQTLAPVVYVTVLVVGFPANCLSLYFGYLQIKARNELGVYLCNLTVADLFYICSLPFWLQYVLQHDNWSHGDLSCQVCGILLYEWIYISVGFLCCISVDRYLAVAHPFRFHQFRTLKAAVGVSVVIWAKELLTSIYFLMHEEVIEDENQHRVCFEHYPIQAWQRAINYYRFLVGFLFPICLLLASYQGILRAVRRSHGTQKSRKDQIQRLVLSTVVIFLACFLPYHVLLLVRSVWEASCDFAKGVFNAYHFSLLLTSFNCVADPVLYCFVSETTHRDLARLRGACLAFLTCSRTGRAREAYPLGAPEASGKSGAQGEEPELLTKLHPAFQTPNSPGSGGFPTGRLA [N104W], the cAMP reporter score in series [1] (pH 6) is 0.057.

MGNITADNSSMSCTIDHTIHQTLAPVVYVTVLVVGFPANCLSLYFGYLQIKARNELGVYLCNLTVADLFYICSLPFWLQYVLQHDNWSHGDLSCQVCGILLYENIYISVGKLCCISVDRYLAVAHPFRFHQFRTLKAAVGVSVVIWAKELLTSIYFLMHEEVIEDENQHRVCFEHYPIQAWQRAINYYRFLVGFLFPICLLLASYQGILRAVRRSHGTQKSRKDQIQRLVLSTVVIFLACFLPYHVLLLVRSVWEASCDFAKGVFNAYHFSLLLTSFNCVADPVLYCFVSETTHRDLARLRGACLAFLTCSRTGRAREAYPLGAPEASGKSGAQGEEPELLTKLHPAFQTPNSPGSGGFPTGRLA [F111K]: the cAMP reporter score in series [1] (pH 6) was -1.16; in series [1] (pH 6, modulator: ogerin), -1.7; in series [1] (pH 6.5, modulator: ogerin), -1.63. In addition, the surface expression score in series [2] is -2.34.

Take MGNITADNSSMSCTIDHTIHQTLAPVVYVTVLVVGFPANCLSLYFGYLQIKARNELGVYLCNLTVADLFYICSLPFWLQYVLQHDNWSHGDLSCQVCGILLYENIYIMVGFLCCISVDRYLAVAHPFRFHQFRTLKAAVGVSVVIWAKELLTSIYFLMHEEVIEDENQHRVCFEHYPIQAWQRAINYYRFLVGFLFPICLLLASYQGILRAVRRSHGTQKSRKDQIQRLVLSTVVIFLACFLPYHVLLLVRSVWEASCDFAKGVFNAYHFSLLLTSFNCVADPVLYCFVSETTHRDLARLRGACLAFLTCSRTGRAREAYPLGAPEASGKSGAQGEEPELLTKLHPAFQTPNSPGSGGFPTGRLA [S108M]: the cAMP reporter score was -1.1 in series [1] (pH 6) and -2.11 in series [1] (pH 6, modulator: ogerin).
